Results: article PMC9911399, “Two distinct binding modes provide the RNA-binding protein RbFox with extraordinary sequence specificity”
Residue numbers refer to the chain shown, from its start. This is one part of the list.

B1: AAAUUGC (DNA:RNA)
RNA: GGGAGACCGGAAUUCAGAUUGUCCAAAUUGCUUAAAUCCCGUCGUAGCCACCA
DNA 1: CAATCTGAATTCCGGTCTCCC
DNA 2: TGGTGGCTACGACGGGATT
B2: AUAGUCG (DNA:RNA)
RNA: B1 RNA with A26U, U28G, G30C, C31G
DNA 1: CAATCTGAATTCCGGTCTCCC
DNA 2: TGGTGGCTACGACGGGATT
B3: AUGGCCC (DNA:RNA)
RNA: B1 RNA with A26U, A27G, U28G, U29C, G30C
DNA 1: CAATCTGAATTCCGGTCTCCC
DNA 2: TGGTGGCTACGACGGGATT
B4: UGUCCAA (DNA:RNA)
RNA: GGGAGACCGGAAUUCAGAUUGUCCUGUCCAAUUAAAUCCCGUCGUAGCCACCA
DNA 1: CAATCTGAATTCCGGTCTCCC
DNA 2: TGGTGGCTACGACGGGATT
B5: UAGACCA (DNA:RNA)
RNA: B4 RNA with G26A, U27G, C28A, A30C
DNA 1: CAATCTGAATTCCGGTCTCCC
DNA 2: TGGTGGCTACGACGGGATT
B6: AUUCGUC (DNA:RNA)
RNA: B1 RNA with A26U, A27U, U28C, U29G, G30U
DNA 1: CAATCTGAATTCCGGTCTCCC
DNA 2: TGGTGGCTACGACGGGATT
B7: GUGACGA (DNA:RNA)
RNA: B4 RNA with U25G, G26U, U27G, C28A, A30G
DNA 1: CAATCTGAATTCCGGTCTCCC
DNA 2: TGGTGGCTACGACGGGATT
B8: GUUAACA (DNA:RNA)
RNA: B4 RNA with U25G, G26U, C28A, C29A, A30C
DNA 1: CAATCTGAATTCCGGTCTCCC
DNA 2: TGGTGGCTACGACGGGATT
B9: UGAUUUC (DNA:RNA)
RNA: B1 RNA with A25U, A26G, G30U
DNA 1: CAATCTGAATTCCGGTCTCCC
DNA 2: TGGTGGCTACGACGGGATT
B10: AGCCGAG (DNA:RNA)
RNA: B4 RNA with U25A, U27C, C29G, A31G
DNA 1: CAATCTGAATTCCGGTCTCCC
DNA 2: TGGTGGCTACGACGGGATT
B11: AAGAGCU (DNA:RNA)
RNA: B1 RNA with A27G, U28A, U29G, G30C, C31U
DNA 1: CAATCTGAATTCCGGTCTCCC
DNA 2: TGGTGGCTACGACGGGATT
B12: UAACUCG (DNA:RNA)
RNA: B1 RNA with A25U, U28C, G30C, C31G
DNA 1: CAATCTGAATTCCGGTCTCCC
DNA 2: TGGTGGCTACGACGGGATT
B13: CAUGUUC (DNA:RNA)
RNA: B1 RNA with A25C, A27U, U28G, G30U
DNA 1: CAATCTGAATTCCGGTCTCCC
DNA 2: TGGTGGCTACGACGGGATT
B14: UGCCCCA (DNA:RNA)
RNA: B4 RNA with U27C, A30C
DNA 1: CAATCTGAATTCCGGTCTCCC
DNA 2: TGGTGGCTACGACGGGATT
B15: UAAAACC (DNA:RNA)
RNA: B1 RNA with A25U, U28A, U29A, G30C
DNA 1: CAATCTGAATTCCGGTCTCCC
DNA 2: TGGTGGCTACGACGGGATT
B16: UCGUACA (DNA:RNA)
RNA: B4 RNA with G26C, U27G, C28U, C29A, A30C
DNA 1: CAATCTGAATTCCGGTCTCCC
DNA 2: TGGTGGCTACGACGGGATT
B17: GAUAUGA (DNA:RNA)
RNA: B1 RNA with A25G, A27U, U28A, C31A
DNA 1: CAATCTGAATTCCGGTCTCCC
DNA 2: TGGTGGCTACGACGGGATT
B18: AAGCAGA (DNA:RNA)
RNA: B1 RNA with A27G, U28C, U29A, C31A
DNA 1: CAATCTGAATTCCGGTCTCCC
DNA 2: TGGTGGCTACGACGGGATT
B19: AUUUGUG (DNA:RNA)
RNA: B1 RNA with A26U, A27U, U29G, G30U, C31G
DNA 1: CAATCTGAATTCCGGTCTCCC
DNA 2: TGGTGGCTACGACGGGATT
B20: UAUUAGU (DNA:RNA)
RNA: B1 RNA with A25U, A27U, U29A, C31U
DNA 1: CAATCTGAATTCCGGTCTCCC
DNA 2: TGGTGGCTACGACGGGATT
B21: CGUGAUA (DNA:RNA)
RNA: B4 RNA with U25C, C28G, C29A, A30U
DNA 1: CAATCTGAATTCCGGTCTCCC
DNA 2: TGGTGGCTACGACGGGATT
B22: CCUAGUC (DNA:RNA)
RNA: B1 RNA with A25C, A26C, A27U, U28A, U29G, G30U
DNA 1: CAATCTGAATTCCGGTCTCCC
DNA 2: TGGTGGCTACGACGGGATT
B23: AACGUGU (DNA:RNA)
RNA: B1 RNA with A27C, U28G, C31U
DNA 1: CAATCTGAATTCCGGTCTCCC
DNA 2: TGGTGGCTACGACGGGATT
B24: UCGCGGU (DNA:RNA)
RNA: B4 RNA with G26C, U27G, C29G, A30G, A31U
DNA 1: CAATCTGAATTCCGGTCTCCC
DNA 2: TGGTGGCTACGACGGGATT
B25: CAUUAGG (DNA:RNA)
RNA: B1 RNA with A25C, A27U, U29A, C31G
DNA 1: CAATCTGAATTCCGGTCTCCC
DNA 2: TGGTGGCTACGACGGGATT
B26: AGGCAAA (DNA:RNA)
RNA: B4 RNA with U25A, U27G, C29A
DNA 1: CAATCTGAATTCCGGTCTCCC
DNA 2: TGGTGGCTACGACGGGATT
B27: GGGGGGG (DNA:RNA)
RNA: B1 RNA with A25G, A26G, A27G, U28G, U29G, C31G
DNA 1: CAATCTGAATTCCGGTCTCCC
DNA 2: TGGTGGCTACGACGGGATT
B28: AUGAGCU (DNA:RNA)
RNA: B1 RNA with A26U, A27G, U28A, U29G, G30C, C31U
DNA 1: CAATCTGAATTCCGGTCTCCC
DNA 2: TGGTGGCTACGACGGGATT
B29: ACGUCUA (DNA:RNA)
RNA: B1 RNA with A26C, A27G, U29C, G30U, C31A
DNA 1: CAATCTGAATTCCGGTCTCCC
DNA 2: TGGTGGCTACGACGGGATT
B30: UCUCGCU (DNA:RNA)
RNA: B4 RNA with G26C, C29G, A30C, A31U
DNA 1: CAATCTGAATTCCGGTCTCCC
DNA 2: TGGTGGCTACGACGGGATT
B31: AAACUGU (DNA:RNA)
RNA: B1 RNA with U28C, C31U
DNA 1: CAATCTGAATTCCGGTCTCCC
DNA 2: TGGTGGCTACGACGGGATT

The binders below were run against T1, RBFOX1 RRM (Homo sapiens, UniProt Q9NWB1 109-208) (assay: EMSA; HiTS-Eq, 1 nM pool, 10 min; buffer printed only for the single-RNA assays: 10 mM Tris pH 7.5, 150 mM NaCl, 3.4 mM EDTA, 0.001% NP-40, 30 C). Settings: tags: His6 N-terminal (pET28a); label: 5' 32P.
T1 sequence: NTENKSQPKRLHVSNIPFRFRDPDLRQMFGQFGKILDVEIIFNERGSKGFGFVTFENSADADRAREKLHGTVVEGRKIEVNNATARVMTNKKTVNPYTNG
Outline: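 Relative association constants, normalised to the cognate motif, were derived by comparing read counts of each RNA species with those of the control reaction. The RNA sequenced was the free fraction, separated by 8% native PAGE after a 10 min equilibration in 50 µL of 1 nM 5′-radiolabelled RNA (7 randomized nucleotides) with increasing concentrations of purified wild-type or mutant RbFox RRM.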

| Binder | binding signal |
| --- | --- |
| B1 | 0.00989 KA relative to UGCAUGU |
| B2 | 0.0114 KA relative to UGCAUGU |
| B3 | 0.00745 KA relative to UGCAUGU |
| B4 | 0.00625 KA relative to UGCAUGU |
| B5 | 0.00812 KA relative to UGCAUGU |
| B6 | 0.00869 KA relative to UGCAUGU |
| B7 | 0.0199 KA relative to UGCAUGU |
| B8 | 0.00289 KA relative to UGCAUGU |
| B9 | 0.0164 KA relative to UGCAUGU |
| B10 | 0.0126 KA relative to UGCAUGU |
| B11 | 0.00506 KA relative to UGCAUGU |
| B12 | 0.0117 KA relative to UGCAUGU |
| B13 | 0.00667 KA relative to UGCAUGU |
| B14 | 0.00485 KA relative to UGCAUGU |
| B15 | 0.00054 KA relative to UGCAUGU |
| B16 | 0.00388 KA relative to UGCAUGU |

| Binder | binding signal |
| --- | --- |
| B17 | 0.0126 KA relative to UGCAUGU |
| B18 | 0.0037 KA relative to UGCAUGU |
| B19 | 0.0207 KA relative to UGCAUGU |
| B20 | 0.0147 KA relative to UGCAUGU |
| B21 | 0.00767 KA relative to UGCAUGU |
| B22 | 0.00613 KA relative to UGCAUGU |
| B23 | 0.00705 KA relative to UGCAUGU |
| B24 | 0.0136 KA relative to UGCAUGU |
| B25 | 0.00819 KA relative to UGCAUGU |
| B26 | 0.00462 KA relative to UGCAUGU |
| B27 | 0.0247 KA relative to UGCAUGU |
| B28 | 0.00823 KA relative to UGCAUGU |
| B29 | 0.00358 KA relative to UGCAUGU |
| B30 | 0.0104 KA relative to UGCAUGU |
| B31 | 0.00602 KA relative to UGCAUGU |
